# From the supplement of paper PMC12217912
# This is one part of the list. Sequences were assembled here from the parent chain. Inactive controls read about 0.05.
# B1: TEV protease; numbered along this chain (parent)
# chain: MGESLFKGPRDYNPISSSICHLTNESDGHTTSLYGIGFGPFIITNKHLFRRNNGTLVVQSLHGVFKVKDTTTLQQHLVDGRDMIIIRMPKDFPPFPQKLKFREPQREERICLVTTNFQTKSMSSMVSDTSCTFPSGDGIFWKHWIQTKDGQCGSPLVSTRDGFIVGIHSASNFTNTNNYFTSVPKNFMELLTNQEAQQWVSGWRLNADSVLWGGHKVFMVKPEEPFQPVKEATQL
# Variants of: B1
# Assay: raw area under fraction-flipped curve 0-4 h after induction (AUC4h, not background-subtracted), DNA-recorder readout of cleavage of the substrate (dimensionless); higher = more cleavage of the substrate by the protease variant
# Settings: temperature: 34 °C; time window: 0-4 h after rhamnose induction
# Procedure: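 In vivo DNA recorder in E. coli TOP10(DE3) ΔrhaA at 34 °C. Each TEVp single-site mutant (parent TEVp 0) is paired with a single-site variant of the 7-mer TEVs (canonical ENLYFQ|S). The substrate sits between flexible linkers in a Bxb1-sfGFP-TEVs-SsrA fusion, so cleavage stabilises Bxb1 and speeds flipping of a recombination array, read by NGS. The value is the raw area under the fraction-flipped curve over 0-4 h after rhamnose induction (AUC4h), with ≥20 reads per time point. It is not background-subtracted; inactive controls average about 0.047.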
# 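Also: Bxb1 expression induced with 0.2% (w/v) L-rhamnose at OD600 near 0.5, cultures sampled hourly, flipped fraction per protease–substrate barcode pair counted by paired-end Illumina sequencing.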
Variant,area with substrate ENLYAQS,area with substrate ENLYDQS,area with substrate ENLYEQS,area with substrate ENLYHQS,area with substrate ENLYKQS,area with substrate ENLYMQS,area with substrate ENLYNQS,area with substrate ENLYPQS,area with substrate ENLYRQS,area with substrate ENLYTQS,area with substrate ENLYVQS,area with substrate ENLYGQS,area with substrate ENLYIQS,area with substrate ENLYSQS,area with substrate ENLYWQS,area with substrate ENLYYQS,area with substrate ENLYQQS,area with substrate ENLYCQS,area with substrate ENLYLQS
V217M,0.0588,0.067,0.0583,0.0622,0.0556,0.0669,0.0633,0.0689,0.0554,0.105,0.0765,,,,,,,,
W212Y,0.0853,0.0476,0.094,,,0.0657,0.0635,0.0703,0.0697,,,0.0662,0.131,0.0909,0.0661,0.0652,,,
D137M,0.0782,0.0741,0.0705,0.0681,0.0527,0.0744,0.0735,0.075,0.0615,0.0582,,0.0703,0.103,,0.0788,0.0449,0.0607,,
D82T,0.0551,0.0614,0.0602,0.0463,0.0613,0.0598,0.0476,0.0559,0.0671,,0.0545,0.0578,0.0446,0.0661,0.0884,0.0573,,0.0414,0.0616
N24I,0.0774,0.0589,0.0654,0.056,0.0555,0.0651,0.0825,0.062,0.0578,,0.0685,0.0602,0.0689,0.0626,0.0668,0.0651,0.0559,,0.0803
P89T,0.0712,,0.0486,0.0626,,0.0786,0.064,0.0627,0.0713,,0.0982,0.0699,,0.0645,,,0.0408,0.0473,0.0674
L156F,0.0497,0.0628,0.061,0.0537,0.0238,,0.0523,0.0684,0.066,0.0513,,,0.072,,0.0562,,0.0866,,0.0733
G214I,0.0575,,0.0547,,,,,,0.0546,,,,0.0904,,0.0546,,,,
Y34T,0.0685,0.0638,,0.0555,0.0677,,0.0634,,,,,0.081,0.0735,0.0793,0.0994,,0.0723,0.0703,
F218Q,0.0602,0.0592,0.0616,,0.0734,0.0552,0.0561,0.0715,0.0257,0.0716,0.0989,0.0653,0.0719,,0.0517,,0.0615,,0.0672
R204Y,0.0757,0.0636,0.103,0.0722,0.0476,0.0867,0.0727,0.0834,0.0695,0.0778,,0.0698,0.123,0.087,0.079,0.0832,0.0583,0.0975,0.0965
S60N,0.0705,0.0718,0.0551,0.0662,,0.0639,,0.077,,0.0803,0.11,0.0503,,0.0724,,,0.057,0.0721,
S135T,0.0721,,0.0781,0.0603,0.0628,0.0669,0.0633,0.055,0.0583,,0.0959,0.0632,,,0.06,0.0583,0.0474,,0.0712
Q75G,0.0655,0.0425,0.0616,0.0401,0.047,,0.0618,0.0588,,,0.103,,0.109,,0.063,0.0571,,,
E107D,0.0776,0.0684,0.0636,0.0689,0.0713,0.0882,0.0758,0.0751,0.0768,,0.0717,0.0587,0.0824,0.0779,0.0757,,,0.0848,
L190K,0.0722,0.0629,0.0758,,0.0703,0.0835,0.0666,0.0743,0.0562,0.0491,,0.0768,,,0.0633,,0.0496,0.0848,0.0723
R50T,0.0763,,0.0439,0.0791,0.0705,0.0927,0.0679,0.0751,0.0636,0.0904,,0.0767,0.131,0.0872,0.0915,0.0753,0.0711,,0.096
G214T,0.0745,,0.0819,0.0706,0.0652,0.0729,0.0618,,,,0.0537,,,0.0473,,0.0525,0.0432,0.0731,
D149F,0.0641,0.0649,0.064,0.0702,,0.0691,0.0595,,0.0631,0.0509,0.0864,0.0512,0.0748,0.0629,,0.0428,,,
S209Q,0.0686,0.0554,0.0909,0.0644,0.0709,0.0932,0.0728,0.0722,0.0719,,0.139,,0.13,,0.0222,,0.0624,,
F101P,0.0625,,0.0591,,0.0603,,0.047,0.0469,0.075,,0.0512,0.044,,,0.0604,,,,
T233F,0.0893,0.0669,0.067,0.0654,0.0329,0.0892,0.0623,0.0529,0.0572,,,0.0746,0.0934,0.0701,,,,0.0755,0.0599
R50S,0.0814,,0.0441,0.0564,,,0.0672,0.0629,,,,,,0.0819,,0.0705,,,
S130F,0.0656,,0.049,0.065,0.0691,0.0699,,,0.0595,,,0.0658,0.108,0.0599,0.0647,,0.0704,,
Y179H,0.0571,0.0646,0.0827,0.0585,,0.0674,0.0621,0.0701,0.0613,,0.0747,0.0617,0.0451,,0.0618,0.0623,0.0584,,
L191R,0.0681,0.0643,0.0615,0.0582,0.0375,0.0411,0.0497,,0.0632,0.05,0.0588,,0.128,0.0599,0.0513,,,0.051,
E195Q,0.0744,0.0673,,0.0736,,0.0825,0.0757,0.0729,,,,0.0497,,,0.0972,0.0806,,,
